Measurements as given in patent US12194105B2, “Composition and method for new antimicrobial agents with secondary mode of action provided by conjugation of an antimicrobial to a guanidinium-rich molecular transporter” (The Board of Trustees of the Leland Stanford Junior …, priority 2018, dated 2025).

Each compound was assayed on MRSA USA400 MW2 (assay: Time-kill in PBS, stationary-phase cells). Conditions: V and V-r8 20 μM, lysostaphin 1.25 μg/ml (10×MIC); detection limit 2.3.
Experimental: FIG. 3A-3B. […] Assay detection limit=2.3.
Time-Kill Kinetics Experiments in MHB and PBS. A stationary-phase culture of USA400 MW2 was prepared by inoculating 1 colony into 4 mL media and growing at 37° C. for 14-16 h. The culture was pelleted 3 times by centrifugation at 10,000 g for 1 min to remove spent medium and diluted in PBS to OD 0.1 just prior to treatment. 50 μL of the bacterial suspension was mixed with 50 μL of treatment compounds at 2-times the desired concentration for a final treatment concentration of 20 μM. The plate was incubated at 37° C. with 200 rpm shaking, and CFUs were plated on Tryptic soy agar via serial dilution at determined time points. Lysostaphin (1.25 μg/mL) served as a positive control.

Compound | cell killing, time-kill in PBS
CN[C@H](CC(C)C)C(=O)N[C@H]1C(=O)N[C@@H](CC(N)=O)C(=O)N[C@H]2C(=O)N[C@H]3C(=O)N[C@H](C(=O)N[C@H](C(=O)NCCCCCC(=O)N[C@H](CCCNC(=N)N)C(=O)N[C@H](CCCNC(=N)N)C(=O)N[C@H](CCCNC(=N)N)C(=O)N[C@H](CCCNC(=N)N)C(=O)N[C@H](CCCNC(=N)N)C(=O)N[C@H](CCCNC(=N)N)C(=O)N[C@H](CCCNC(=N)N)C(=O)N[C@H](CCCNC(=N)N)C(N)=O)c4cc(O)cc(O)c4-c4cc3ccc4O)[C@H](O)c3ccc(c(Cl)c3)Oc3cc2cc(c3O[C@@H]2O[C@H](CO)[C@@H](O)[C@H](O)[C@H]2O[C@H]2C[C@](C)(N)[C@H](O)[C@H](C)O2)Oc2ccc(cc2Cl)[C@H]1O [V-r8, vancomycin-D-octaarginine] | bacterial killing down to the assay's detection limit
CN[C@H](CC(C)C)C(=O)N[C@H]1C(=O)N[C@@H](CC(N)=O)C(=O)N[C@H]2C(=O)N[C@H]3C(=O)N[C@H](C(=O)N[C@H](C(=O)O)c4cc(O)cc(O)c4-c4cc3ccc4O)[C@H](O)c3ccc(c(Cl)c3)Oc3cc2cc(c3O[C@@H]2O[C@H](CO)[C@@H](O)[C@H](O)[C@H]2O[C@H]2C[C@](C)(N)[C@H](O)[C@H](C)O2)Oc2ccc(cc2Cl)[C@H]1O [Vancomycin] | does not instantly kill cells
Lysostaphin: an antibacterial enzyme that induces membrane permeabilization, positive control | rapid killing
